The supplement of paper PMC9151546
Repeats are few or missing, and single values can be far off.

Columns and labels:
[1] = tested on: CHO-K1; assay: micronucleus frequency (% of nucleated events); higher = more micronuclei (genotoxic)
[2] = tested on: CHO-K1; assay: hypodiploid nuclei frequency (% of nucleated events); higher = more hypodiploid events (aneugenic)
Protocol: (§1)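 Flow-cytometric in vitro micronucleus assay (Litron MicroFlow) in CHO-K1 cells in 96-well plates, 19 concentrations (4.5-200 µM, n=1 per concentration). Without S9, cells were exposed for 24 h and sampled at 48 h. With Aroclor 1254-induced rat liver S9, cells were exposed for 3-4 h and sampled at 27-28 h. Read-outs are %MN and %hypodiploid nuclei relative to nucleated events, and relative survival as the nuclei-to-bead ratio versus the 1% DMSO vehicle control (x100).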

[3] = tested on: CHO-K1; assay: relative survival (nuclei to bead ratio vs DMSO control) (% of vehicle control); higher = more surviving cells
Protocol: as §1
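For hypodiploid nuclei frequency (% of nucleated events) in this document: hypodiploid nuclei gated on a flow cytometer with 488 nm excitation after SYTOX Green staining, cultures at 37 °C, positive controls vinblastine without S9 and cyclophosphamide with S9.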
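For micronucleus frequency (% of nucleated events) in this document: cells lysed with nuclei stained by SYTOX Green, then micronucleus-gated events counted against nucleated events by flow cytometry with 488 nm excitation.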
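For relative survival (nuclei to bead ratio vs DMSO control) in this document: Lysed-cell nuclei stained with SYTOX Green and counted against counting beads by flow cytometry at 488 nm excitation, with vinblastine (no S9) and cyclophosphamide (plus S9) as positive controls.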

C[C@]12C=CC(=O)C=C1CC[C@H]1[C@@H]3C[C@@H](O)[C@](O)(C(=O)CO)[C@@]3(C)C[C@H](O)[C@@]12F [Triamcinolone]
Conditions	hypodiploid nuclei frequency, [2] [%]	micronucleus frequency, [1] [%]	relative survival, [3]
concentration: 4.5 (µM), S9 metabolic activation: with S9, exposure time: 3-4 hours	0.24	1.1	75.5
concentration: 4.5 (µM), S9 metabolic activation: without S9, exposure time: 24 hours	0.48	1.14	93.6
concentration: 5.63 (µM), S9 metabolic activation: with S9, exposure time: 3-4 hours	0.22	1.64	81.1
concentration: 5.63 (µM), S9 metabolic activation: without S9, exposure time: 24 hours	0.42	1.02	120
concentration: 7.04 (µM), S9 metabolic activation: with S9, exposure time: 3-4 hours	0.22	1.26	78.6
concentration: 7.04 (µM), S9 metabolic activation: without S9, exposure time: 24 hours	0.6	1.3	97.9
concentration: 8.8 (µM), S9 metabolic activation: with S9, exposure time: 3-4 hours	0.34	1.52	82.2
concentration: 8.8 (µM), S9 metabolic activation: without S9, exposure time: 24 hours	0.54	1.16	90.1
concentration: 11 (µM), S9 metabolic activation: with S9, exposure time: 3-4 hours	0.16	0.84	97.7
concentration: 11 (µM), S9 metabolic activation: without S9, exposure time: 24 hours	0.52	1.12	91.1
concentration: 13.7 (µM), S9 metabolic activation: with S9, exposure time: 3-4 hours	0.32	1.16	101
concentration: 13.7 (µM), S9 metabolic activation: without S9, exposure time: 24 hours	0.6	1.4	111
concentration: 17.2 (µM), S9 metabolic activation: with S9, exposure time: 3-4 hours	0.28	1.52	97.4
concentration: 17.2 (µM), S9 metabolic activation: without S9, exposure time: 24 hours	0.4	1.12	97.9
concentration: 21.5 (µM), S9 metabolic activation: with S9, exposure time: 3-4 hours	0.28	1.54	95.5
concentration: 21.5 (µM), S9 metabolic activation: without S9, exposure time: 24 hours	0.46	1.14	90.6
concentration: 26.8 (µM), S9 metabolic activation: with S9, exposure time: 3-4 hours	0.22	1.06	110
concentration: 26.8 (µM), S9 metabolic activation: without S9, exposure time: 24 hours	0.76	1.42	97.9
concentration: 33.6 (µM), S9 metabolic activation: with S9, exposure time: 3-4 hours	0.34	1.14	96.5
concentration: 33.6 (µM), S9 metabolic activation: without S9, exposure time: 24 hours	0.58	1.46	132
concentration: 41.9 (µM), S9 metabolic activation: with S9, exposure time: 3-4 hours	0.36	1.04	97.9
concentration: 41.9 (µM), S9 metabolic activation: without S9, exposure time: 24 hours	0.7	1.46	124
concentration: 52.4 (µM), S9 metabolic activation: with S9, exposure time: 3-4 hours	0.26	1.04	92.3
concentration: 52.4 (µM), S9 metabolic activation: without S9, exposure time: 24 hours	0.82	1.36	88.7
concentration: 65.5 (µM), S9 metabolic activation: with S9, exposure time: 3-4 hours	0.3	1.48	108
concentration: 65.5 (µM), S9 metabolic activation: without S9, exposure time: 24 hours	0.9	1.28	109
concentration: 81.9 (µM), S9 metabolic activation: with S9, exposure time: 3-4 hours	0.34	0.98	96
concentration: 81.9 (µM), S9 metabolic activation: without S9, exposure time: 24 hours	0.62	1.16	107
concentration: 102 (µM), S9 metabolic activation: with S9, exposure time: 3-4 hours	0.24	1.3	105
concentration: 102 (µM), S9 metabolic activation: without S9, exposure time: 24 hours	0.74	1.3	108
concentration: 128 (µM), S9 metabolic activation: with S9, exposure time: 3-4 hours	0.16	1.18	85.8
concentration: 128 (µM), S9 metabolic activation: without S9, exposure time: 24 hours	0.78	1.48	97.9
concentration: 160 (µM), S9 metabolic activation: with S9, exposure time: 3-4 hours	0.16	0.96	97.4
concentration: 160 (µM), S9 metabolic activation: without S9, exposure time: 24 hours	1	1.6	93.1
concentration: 200 (µM), S9 metabolic activation: with S9, exposure time: 3-4 hours	0.14	1.72	80.7
concentration: 200 (µM), S9 metabolic activation: without S9, exposure time: 24 hours	0.86	1.88	94.1
